The list shows a part of the results. At the low end of the ranking the order means little. The protein was read in a cell extract, so binding may be indirect.
target: T1, HNF4alpha2 (COS-7 nuclear extract) (UniProt P41235); experiment: protein-binding microarray; conditions: COS-7 nuclear extract on double-stranded Agilent 4x180k PBM; binding buffer, salt, pH and temperature not given; high values mean tight binding; double strand, one strand shown; sequences stand for … in …GCCTAGGGAGATTAGAGTATCGGTCGA
T1 sequence: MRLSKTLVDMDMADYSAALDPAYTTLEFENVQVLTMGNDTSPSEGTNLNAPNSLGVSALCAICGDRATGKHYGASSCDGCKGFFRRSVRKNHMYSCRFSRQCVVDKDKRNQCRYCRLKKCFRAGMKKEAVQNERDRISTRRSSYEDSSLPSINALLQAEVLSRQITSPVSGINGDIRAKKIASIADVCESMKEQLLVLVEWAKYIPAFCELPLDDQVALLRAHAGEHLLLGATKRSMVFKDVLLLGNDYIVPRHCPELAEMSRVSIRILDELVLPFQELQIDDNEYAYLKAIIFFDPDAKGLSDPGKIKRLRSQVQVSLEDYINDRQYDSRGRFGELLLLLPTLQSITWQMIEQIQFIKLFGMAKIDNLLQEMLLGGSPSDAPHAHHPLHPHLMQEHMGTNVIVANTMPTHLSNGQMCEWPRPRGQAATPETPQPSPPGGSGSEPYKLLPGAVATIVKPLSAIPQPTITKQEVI

| Sequence | binding signal (log2 normalized intensity) |
| --- | --- |
| TCTGGGATGTTGGGAGGAGTGGACTTTGAT | 5.99 |
| CTGGGATATCAGGTATTGCCCAGTATTGAT | 1.19 |
| CTGTTGGGGAGCAAAGGTTAGCAAGGGCCC | 2.54 |
| TGCAGGTAAAACTACATTTCCAAGACCTCT | -1.11 |
| CAGCCACATTCCATGAGCTGGCCTCACTAA | -1.14 |
| AAGGGCCCATGGGCTTCAGGGTAAATCCCG | -1.11 |
| CTATGCCTTGAACTTTAAGGCACCTGCTCT | -0.636 |
| GAGCTCGCGCCGGGCACTGATAACGCCCGC | -1.27 |
| GCTCTCTGCTCTTACCTGCCAAATATTGGG | -1.03 |
| CCATACCTCTTGCGTGTTATCTATGGAACA | 1.5 |
| ATGGCTAATCAGTATTGAGGCCGGAGGGCA | 1.03 |
| GGACTATCCCCGTCCGCGGAAGCACACACG | -0.869 |
| CAGCCACAAAAACCAAAGGTCACTTCGCAT | 3.47 |
| GGACGGGTAAGAGTCGTGGCCTTGCCATTG | -0.23 |
| TTCCCATTCATAAAATTACGCCACAGAGTT | -0.871 |
| GTTGTTTTTAAAAGGCTGCCTTTCCCAGAT | -1.01 |
| GAAAGGAGACTAAAGGTCAAAACCACCTAT | 2.78 |
| TGAGTGGGTTCACTTTGAGCAAGATAATGA | 0.62 |
| TTTAAAGAACTGGGCGAGCCCTCTGATCTG | -1.09 |
| TTGTATGTCCAAGGGTCACTCGACATTCAT | 3.02 |
| TAAGATTCTGGTCAAAGGTCAATGAAGCTC | 5.93 |
| AAATGTTATCATTACTTCTCAACTGATATG | 1.5 |
| TCCTGCCTTGGAGAAGTGAACTTTGCCCTC | 10.2 |
| CCAGCAAACGTTCTTCTCTAACCCTCCTTT | 1.39 |
| GGATGTGGGACTTAATCCTTGTCTGTTTGG | 1.91 |

| Sequence | binding signal (log2 normalized intensity) |
| --- | --- |
| CTGGGCCCCTCGGCCGCTCCCTCCCCTCCT | 5.21 |
| CTAAGAGCCTACTGAGAGGAAAGGGGTTAA | -1.1 |
| GCTGATCACTTAAAATGAGACTTCCCAGCT | -1.05 |
| AAGACTGCAGCAAAGTCCTCCAACTGCCAC | -1.07 |
| GGCAGTGGGACAATGAAGCCTAAATGATAA | -1.24 |
| TCTGTAGTGTTGCTCAAGTCTCCTGTTTTC | 1.8 |
| AGGCTGAAGAAGTTGCTCAGTGTTCCACAG | -1.14 |
| CACCCCACACACACACAGCATTCCATTCAT | 1.1 |
| GATCAAAGGAAACTGCTTGGGCCCCTCCCT | 1.83 |
| TAATTAGACAACATCGAAGACTTCATGATA | -1.03 |
| TACCTTTGAAACCTAAGATGTCACAGGCAA | -1.16 |
| CGTGGGCATGCCTCCCAGAGCATTGTTTAT | 0.706 |
| TTTGAAGTTTAGAGATGCCTATAGGGTCTT | 0.736 |
| TCAAGATGAAGCAAGAGTCCAAATTCCTAG | 1.53 |
| GAAGGACGTCAGAACTGTCCTTTAACCTCC | 3.93 |
| CTGCCTTAGTCCCAGTATGGTCTCAGTAAT | -0.127 |
| CGGCAGCACAAGGCGGTAGCCATGGCGGAG | -1.14 |
| GTCTGCTGCCCAGACACACAATATTATGTT | -0.79 |
| TTCCTTAAGATTAGTTCTTTGTAGGAAGGC | 1.22 |
| GGTAGAGTCTAAGGAGGCAGTAAGATAAGG | -1.14 |
| GGAAACCGCGATTAAAAATGGAACAGTAAG | -1.25 |
| GTCTTATTCAGCCTCATTGATTTGAACATT | 2.42 |
| CAGAGAAGATTAGCTCACAGGAAAGGAGAC | -1.01 |
| GGCGAGTGTGCAATTAGAGCAAAGGTTACT | 3.08 |
| ACAGCCCTCCAACTATGCTAAGAATGCGAA | -1.02 |

| Sequence | binding signal (log2 normalized intensity) |
| --- | --- |
| TTCTCCTGTGATCTGGATTTTCAGGTTCCC | 0.467 |
| CTTAGGTACTTTTCTGTTTGTCTTACTGTG | 1.93 |
| AGAGAAGGAGCCAGAGCTTTGGGAAAAGTG | -1.14 |
| AAGCTCTTTCCCTCCACCAAGTTTCCCACA | 1.72 |
| TTAAACACGTTTTATTAGGGGTCAGCAAAG | 2.14 |
| ACCATGCCTATAAATTGCCTGGCTTCAATA | -1.11 |
| TGCAAGGGCAGCTCCGTTTACCTAGAGGCA | -1.2 |
| TTGAAGTTTTGGCCAACAGAGGGGTCAGAG | 2.11 |
| TGACAGCATGTTCGGCTGAGACCTGATCAG | 0.111 |
| AATTTCTCAGATGCCAGCTAAGATCAGTAG | 0.98 |
| TGGCCTTTGGCTGTTCGATGTATACAGTAT | 1.4 |
| CCATAACCCTCAGCTCCTCTCCTCCATGGC | -0.695 |
| TTTGTTGCCTCTTTTCTGCTTTTGGAATTT | 2.71 |
| ACCTTGTCCCTGGATTGTGTTGCACTGTTT | 2.13 |
| TTCACATTCCAGTGTTTCAAAGGAGTGTCT | 1.32 |
| GTTTACTCATGTGGTCCTAAGACTGACCTT | 3.77 |
| CCTCTTGCGTGTTATCTATGGAACATGGAC | 2.24 |
| AGAGGAAAAAGTCCCTGGTCCCATAGGAAA | -1.1 |
| AAGTTATCTTGAGACCTCAAGGGGAGAGGA | -1.11 |
| TTTCCAGCAAATCCCAATTCACTGACACAA | -1.1 |
| ACATGAGGTAGAGGGACACTGATAACACTG | -1.18 |
| CTCAACACTGGCTTCTCTGGCCTAGTAAGA | -1.11 |
| TTAAGCCAAAGTCCAAGTTGGTGAGAACAG | 2.66 |
| AAGGACTGGACCACCTCCTCAAAGAGCAGA | -0.99 |
| TACCTGTGCAGATATTTAACCTTTGATCTG | 7.34 |

| Sequence | binding signal (log2 normalized intensity) |
| --- | --- |
| TGCTTCCAGTTCCATAATCCCCGAATGTCC | 2.87 |
| AGGGGCATTTGAGTACATGCCTCTCCCAGT | 0.552 |
| TTTGCAAATGACTTTGAGAGTAAGTTTCTG | -0.533 |
| CCCTCCCCCCACTCAAAATAGGAGTTAAGG | 2.45 |
| GCAAACATTTCACTTTGCTCCCTCCTTCAG | 0.666 |
| CTGGCCCACTGTTCTCTCTAGAGAGAACAG | -1.14 |
| AACCTGCTGCAGGAGAGATGGTCAGATTTT | 0.577 |
| CTGCCTTCCTGCTCATGCAGCTGCTGCCCA | -1.04 |
| TTTGCCTGGTGATCTTTGTTAGACCCTTAT | 2.48 |
| AGACACTTTGGCTCCAGAGTCCACATTCTT | 2.45 |
| CATGATTGTAGCCAAACTCACAGCTTTTAT | -0.939 |
| CGTTGGTGCTCCCCCACCCTGTGTCAGCAT | 3.93 |
| GGGCATTCTGGAGTTTGGAACCAAATCAGC | 1.92 |
| TCAGATGCAGTCCAGAAGGTCAGGACCACA | 0.404 |
| GACTTGAGAAGACATAGTTTTTGCCCTTAA | 2.29 |
| CTAGCTGTGTAACCCTGGACAAGTTATCTT | 0.776 |
| GGCTGCATTCCCAGATGGTTAGGTATTTTA | 0.231 |
| GGGAAGAGAGTATGGGATGATCAGTAAGGA | -0.994 |
| CACCCCCATCTATGCACTCTCACCTTGGGG | 0.591 |
| ATGGGGGAAGGGCTGGAGACGCAGGAGATG | -1.12 |
| TGTGTGTGTGTGGTGTGTGTGTGTGTGTTT | 3.51 |
| ACATTTGCGCAAACATAAAGGCAAAGGTCA | 4.79 |
| ACTTTCAACAAGGTGGAGACCTCTGCAGGA | 0.192 |
| AGGTCTCTGCATACCAGGTAAGTGACATGC | -0.382 |
| GGAAATGGATTGCCTCCTAAGGCCTCCAGA | -1.21 |

| Sequence | binding signal (log2 normalized intensity) |
| --- | --- |
| ATCTGGGCCAAGGCAGATATACCAGATAAG | -1.11 |
| ACCAGTGGACCATGAGAAACATCCACATGT | -1.06 |
| TCTGTCTTTGATCTGCTATCTCAGATAGCT | -1.32 |
| TTCCATTAACTGAACCTAGATTCCAGGAAG | -0.614 |
| CAGCGGCCGGAAAAAGTGAGGAGCAGCAGA | -1.06 |
| CGGACGGGCTGCGGAGGCGACTGCAGATTG | -1.2 |
| TTCTCCGGGTTCTGCGCAGGGAGGAGCGCA | -0.994 |
| ACTGGAATAAAGCAGTCCCTACTTCAAAGG | -1.17 |
| GTGCAAGGGAATGTAAGGCACTTTATCTAG | -1.09 |
| TTCAGCAAATACTAATTCTCCCCCACCTGT | 4.53 |
| CTGGGATCCAAAGTTCATGGAAAGTTTCAC | 2.56 |
| AGCAGTCCCTTCCCCCCTCCTCATTGAGAG | 4.37 |
| CAGAGATCAAAAACCAAAGCTGGAGTGCAG | -0.83 |
| CCAAGGTGCTAGCTCCGACTCAGTGGGGGG | -1.14 |
| GTGGCCTGTGCCTGTAGTCCCAGCGACTTG | -1.1 |
| CACATTGTAGCTAAAATGTTAATGATTACT | -1.02 |
| TCCTGTTCAACTATTCCTCGACCTTCGGCT | 2.73 |
| CCTCGGTGGAGTTGACACAGACCTGCCTCT | -1.13 |
| AATATAGGCCAGGCATACCTTTCTTATCAT | -0.327 |
| TCTTATCTAGGTAAGTATAGTGGGAGGAGA | 1.16 |
| GGCTGCGACCTGCTGGGCTGCATTCCCAGA | -1.13 |
| TTCACACCATGCTCTAGTCTTCCTGTCTCC | -0.199 |
| CCATTATCTCCTTAGGTACTTTTCTGTTTG | 2.02 |
| ATTTTTATCTGTTTATTTTGCAATTAACAA | 0.164 |
| CAGTATTTGGTGAGGCCCCAGTGTCAATTC | 1.49 |

| Sequence | binding signal (log2 normalized intensity) |
| --- | --- |
| AAGATTGTTGAATACTTGGAGACAGTGAGA | 0.359 |
| TAAGGGTGTTTGTCCTTTGTTGCAATGCTG | 1.28 |
| CCCCAATACACACACACCCCTCCACTGGAC | 3.64 |
| TTATCTAGACAAATTTGTTTACTTCTGTCT | 0.69 |
| CTCAGATGCCAGCTAAGATCAGTAGCTAGG | -1.07 |
| AAAACATATTTGCATAATGGAGCAAAGGTC | 5.4 |
| TGGTGTGGACAGCAGACAACTTTTCCTCTA | -1.14 |
| AGTCCAAAGCTCAGATTGCCTAAAGGGGAT | -1.14 |
| CATCTTTGAGCTGGATGACCTTTGTCCTGG | 8.57 |
| ACAGAAGAAGGAAAAGGCCTGACCTTTGCC | 4.61 |
| ACGCAGTCCCGCGTGGCCTTGTGGGAGCTG | -1.09 |
| AGTGGCTTTGTTGATAACAAGTAAAATGAG | 0.396 |
| ATGGTTAGCACTCTGGACTCTGAATCCAGC | 2.69 |
| TGTGTCTTTATAACAGACTGTAGGCTTGGA | 1.72 |
| ACTCCATCCTCACTTTAGGTGCTCTTGGCT | 0.327 |
| TGAAAGTTCTCTGGGCTTTTTGATCTTGTC | 1.66 |
| AAATCACAATTTTCAAGAACAAACAAATTT | -1.05 |
| ACGCACGGCAGAGCACCTGGATAAGCCAGA | -1.22 |
| CCCCCTGCTCCAGGCCGGCTTGCGTCCCCA | 3.43 |
| AGCCTACCCACCCACACCTCCCCTTTGTTT | 3.59 |
